Laboratory results published in PMC4336329 (PLoS ONE, 2015).
Among all 310,000 compounds or so, about 2,200 (0.71%) showed an effect of 50% or more. Effects have a minus sign here. This is one part of the list.

target: human ether-à-go-go-related gene (hERG) potassium channel (human, UniProt Q12809); test: primary screen, population patch clamp on CHO cells stably expressing hERG
Sequence (Q12809 whole entry, looked up): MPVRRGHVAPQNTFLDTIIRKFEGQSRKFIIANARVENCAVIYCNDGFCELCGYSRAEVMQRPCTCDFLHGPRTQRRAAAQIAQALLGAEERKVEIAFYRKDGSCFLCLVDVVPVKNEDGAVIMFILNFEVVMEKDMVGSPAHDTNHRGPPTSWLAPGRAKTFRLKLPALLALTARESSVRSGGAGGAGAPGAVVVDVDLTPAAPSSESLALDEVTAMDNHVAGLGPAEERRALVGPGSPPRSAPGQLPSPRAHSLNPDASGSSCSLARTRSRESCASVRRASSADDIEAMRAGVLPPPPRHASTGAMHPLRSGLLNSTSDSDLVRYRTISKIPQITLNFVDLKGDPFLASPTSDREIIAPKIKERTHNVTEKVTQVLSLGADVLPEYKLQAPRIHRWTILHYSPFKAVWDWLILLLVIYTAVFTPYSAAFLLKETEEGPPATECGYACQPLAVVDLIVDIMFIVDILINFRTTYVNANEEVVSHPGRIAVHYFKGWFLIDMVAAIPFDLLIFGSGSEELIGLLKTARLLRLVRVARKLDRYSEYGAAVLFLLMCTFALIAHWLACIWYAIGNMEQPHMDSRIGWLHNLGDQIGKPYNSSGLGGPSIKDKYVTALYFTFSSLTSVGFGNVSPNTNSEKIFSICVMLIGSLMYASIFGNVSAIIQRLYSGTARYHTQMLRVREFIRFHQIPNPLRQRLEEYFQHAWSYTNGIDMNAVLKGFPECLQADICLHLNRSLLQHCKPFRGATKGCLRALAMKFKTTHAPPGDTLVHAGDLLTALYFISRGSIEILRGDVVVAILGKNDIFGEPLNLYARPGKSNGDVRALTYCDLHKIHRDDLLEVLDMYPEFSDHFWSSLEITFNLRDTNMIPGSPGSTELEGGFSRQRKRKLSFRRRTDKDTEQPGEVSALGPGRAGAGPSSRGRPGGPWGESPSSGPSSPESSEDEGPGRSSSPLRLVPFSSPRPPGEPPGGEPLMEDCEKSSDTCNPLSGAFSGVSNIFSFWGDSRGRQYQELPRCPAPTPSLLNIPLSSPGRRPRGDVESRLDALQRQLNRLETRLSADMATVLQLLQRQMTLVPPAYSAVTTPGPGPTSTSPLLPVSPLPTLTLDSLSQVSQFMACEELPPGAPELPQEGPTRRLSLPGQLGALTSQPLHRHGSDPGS

Compound	hERG current change (%, negative = inhibition) at 1uM
Cc1ccc(N2CC(C(=O)Nc3nnc(SCC(=O)NCC4CCCO4)s3)CC2=O)cc1C (stereo not drawn)	7.64%
O=C(Nc1cccc([N+](=O)[O-])c1)Nc1ccc(Cl)cn1	9.25%
CCNC(=S)Nc1cc(OC)c(NC(=O)c2ccco2)cc1OC	13.5%
O=C1N(Cc2cccc(Cl)c2)C[C@@H]2C[C@@H](c3ccccn3)N3CCC[C@@]123	7.23%
Cc1ccc(C)c(OCC(=O)NNC(=O)c2ccc(=O)[nH]c2)c1	11.4%
Cc1[nH]c2ccc(F)cc2c1CCN(Cc1ccco1)C(=S)NC(C)(C)C	15.8%
S=C(NCCc1ccccc1)N1CCn2cccc2C1c1ccncc1 (stereo not drawn)	2.69%
CC(Sc1nnc(Nc2ccccc2)s1)C(=O)Nc1nc(-c2ccccc2)cs1 (stereo not drawn)	6.77%
COc1ccc(C(=O)C2CCN(CC(=O)Nc3ccc(OC)cc3OC)CC2)cc1	-7.33%
COc1ccc(NC(=O)CN(C)CC(=O)NC(=O)NC2CCCCC2)cc1	5.98%
Cc1ccccc1N(CC(=O)NCCc1ccccc1)C(=O)c1ccc(N2CCCC2)nc1	8.49%
COc1cccc(OCc2nn[nH]n2)c1	16.5%
CN(C)CCn1c2c(c(SCC(=O)Nc3cccc(C(F)(F)F)c3)nc1=O)CCCC2	-36.8%
COC(=O)c1nnn(CC(=O)NC(=O)Nc2cccc(Cl)c2C)c1C(=O)OC	12.7%
O=C(Cc1cc(=O)oc2cc(O)ccc12)NC(Cc1ccc(Cl)cc1)C(=O)O (stereo not drawn)	17.3%
CCCC(=O)N/N=C1\CS(=O)(=O)N(C)c2ccsc21	8.79%
CCOC(=O)c1oc2ccc(S(=O)(=O)N3CCC(C)CC3)cc2c1C	7.49%
COc1cc(OC)cc(C(=O)N2CCN(C(=O)COc3ccc4ccccc4c3)CC2)c1	-4.51%
CCc1nnc(NS(=O)(=O)c2ccc(N/C=C(\C=O)c3nc4cc(Cl)ccc4o3)cc2)s1	13.9%
Cc1nn(Cc2nc(-c3cccs3)no2)c(C)c1Br	5.21%
COc1ccc(NC(=O)N2CCCC(c3ccccc3)C2)cc1 (stereo not drawn)	6.78%
COc1ccc(OC)c(NC(=O)CN(c2ccc(C(C)C)cc2)S(=O)(=O)c2c(C)noc2C)c1	10.2%

Compound	hERG current change (%, negative = inhibition) at 1uM
Fc1ccc(CSc2nnc(-c3cccs3)o2)cc1	3.22%
CCOc1cc(/C=C2/SC(=S)NC2=O)ccc1OC(=O)c1ccco1	14.3%
CC(=O)c1c(N2CCN(CCO)CC2)nc(=S)n(-c2ccccc2)c1C	4.96%
CCC(C)(C)NC(=O)c1ccc2c(c1)OCCO2	12%
O=C(NCC1CCCO1)c1sc2cc(Cl)ccc2c1Cl (stereo not drawn)	11.4%
CCC(=NCC1CCCO1)c1c(O)n(-c2ccccc2)c(=O)[nH]c1=O (stereo not drawn)	7.58%
COc1ccc(Br)c(C(=O)Nc2ccc(F)cc2)c1	4.38%
O=C(COc1cccc2cccnc12)Nc1ccccc1	6.39%
CCCCc1nnc(SCC(=O)Nc2nccs2)n1CC	12.9%
CN(C)c1ccc(/C=C2\CCCc3c2nc2ccccc2c3C(=O)O)cc1	15.2%
CN(C)C(=O)c1ccccc1Sc1ccc(Cl)cc1Cl	-27.3%
CCOC(=O)C1=C(C)N(C)C(=S)NC1c1ccc(Cl)cc1 (stereo not drawn)	9.34%
COc1ccc(CC(=O)Nn2c(-c3ccccc3)nc3ccccc3c2=O)cc1	4.63%
O=C(CSc1nnc2n(C3CCCC3)c(=O)c3ccccc3n12)N1CCCCCC1	-4.8%
O=C(Nc1ccc(Cl)c(Cl)c1)OCc1cnc(Cl)s1	4.53%
COc1ccc(OC)c(-c2csc(NC(=O)CSc3ccc([N+](=O)[O-])cc3)n2)c1	14.9%
CC1Oc2ccccc2N(CC(=O)Nc2ccccc2F)C1=O (stereo not drawn)	19.1%
Cn1c(SCC(=O)NCc2ccccc2)ncc(C(=O)Nc2ccccc2)c1=O	-8.46%
Cc1c(C(N)=O)sc2nc(-c3ccccc3)cn12	3.67%
C=CCNC(=O)c1cc2c(=O)n3cccc(C)c3nc2s1	8.75%
OC(COc1ccc(-c2ccccc2)cc1)CN1CCOCC1 (stereo not drawn)	5.23%
O=C(COc1ccccc1Cl)Nc1ccccc1C(=O)N1CCOCC1	-7.15%

Compound	hERG current change (%, negative = inhibition) at 1uM
Cc1ccc(NC(=O)Nc2ccc(S(N)(=O)=O)cc2)cc1	2.75%
COc1cc(/C=N/NC(=O)Cn2ccc(C(F)(F)F)n2)cc(OC)c1OC	5.05%
CNCC(O)c1ccc(OC(=O)C(C)(C)C)c(OC(=O)C(C)(C)C)c1.Cl (stereo not drawn)	10.3%
COc1ccc(NC2CCCCC2NS(=O)(=O)c2ccc(C)cc2)cc1 (stereo not drawn)	13.2%
COCCNS(=O)(=O)c1ccc2c(c1)Cc1cc(S(=O)(=O)NCCOC)ccc1-2	-2.46%
CC(C(=O)N1CCOCC1)(c1ccccc1)c1ccccc1	10.4%
CN(C)S(=O)(=O)c1ccc(/C(O)=C2/C(=O)C(=O)N(CCCN3CCOCC3)C2c2ccncc2)cc1 (stereo not drawn)	15%
O=C1NCCCC1C(=O)N1CCN(C(c2ccccc2)c2ccccc2)CC1 (stereo not drawn)	-1.39%
O=C(N/N=C/c1cccnc1)c1cc(-c2ccccc2)nc2ccccc12	-0.466%
COc1ccc(OC)c(NC(=O)COC(=O)/C=C/c2ccccc2Cl)c1	5.99%
O=S(=O)(Nc1ccc(N2CCOCC2)cc1)c1ccccc1	13.8%
COc1cc2c3nnc(-c4ccc(F)cc4)c-3cn(Cc3ccc(F)cc3)c2cc1OC	-5.13%
Cl.Oc1ccc(-c2csc(Nc3cccc4ccccc34)n2)cc1O	11.8%
CCC(C)[C@H](N)c1nnc(SCc2cccc(F)c2)o1.Cl (stereo partly drawn)	17.7%
CCOc1ccccc1C1C(C(=O)OC)=C(N)OC2=C1C(=O)CCC2 (stereo not drawn)	6.69%
CCN=c1scc(-c2ccccc2)n1/N=C/c1ccccn1	2.12%
CC(C)(CN1CCCC1)NS(=O)(=O)c1ccccc1.Cl	12.7%
O=C(COC(=O)c1cc(S(=O)(=O)N2CCOCC2)c(Cl)cc1Cl)Nc1ncc(C(F)(F)F)cc1Cl	9.27%
CCOc1cc(/C=N/n2c(C)nnc2C)ccc1O	12.6%
CCc1nc(Nc2ccccc2O)c2oc3ccccc3c2n1.Cl	8.96%
CCN(CC)Cc1c(C(=O)N/N=C(\C)c2ccncc2)nnn1-c1nonc1N	-39.7%
CC(C)CNC(=O)C1CCN(c2ccc(S(=O)(=O)N3CCOCC3)cc2[N+](=O)[O-])CC1	-9.02%

Compound	hERG current change (%, negative = inhibition) at 1uM
CC1(C)Cc2ccccc2C2=C(C(=O)N3CCCCCC3)C(=O)C(=O)N21	11.5%
CCOc1cc(C(=O)CCC(=O)OCC(=O)N2c3ccccc3NC(=O)C2(C)C)ccc1O	-0.0872%
Cc1cccc(NC(=O)CN2C(=O)S/C(=C\c3cc(C)n(C)c3C)C2=O)c1	0.701%
CCC1CCCCN1S(=O)(=O)c1ccc(NC(=O)c2cccs2)cc1 (stereo not drawn)	11.5%
COc1ccccc1N1CCN(CC(=O)Nc2ccc(C)c(F)c2)CC1	3.75%
Cc1cc(OCC(=O)N[C@@H](Cc2ccccc2)c2nc3ccccc3[nH]2)ccc1Cl	7.57%
CC1CCN(S(=O)(=O)c2ccc(Cl)cc2Br)CC1	4.97%
CC1CC(C)(C)NC(=S)N1CC(=O)NCc1ccc(F)cc1 (stereo not drawn)	6.39%
O=C(N/N=C/c1cc2c(cc1Br)OCO2)c1cccnc1	15.1%
COc1cc(NC(=O)CN2C(=O)C(c3ccccc3)=NC23CCCCCC3)cc(OC)c1	25.4%
O=C(Nc1ccccc1)c1ccc(C(=O)Nc2ccccc2)nc1	13.7%
Cc1ccc(C(=O)NCC(=O)N2CCN(S(=O)(=O)c3cccs3)CC2)s1	7.92%
Cc1ccc(S(=O)(=O)N(Cc2ccc(F)cc2)C(=O)N2CCN(C)CC2)cc1	13.8%
Nc1nnc(CSCc2ccc(Cl)cc2Cl)s1	13.4%
COc1cccc(CN2CCN(Cc3ccccc3C(F)(F)F)CC2)c1	13.8%
CCOc1ccc(CNC23CN4CN(CN(C4)C2)C3)cc1	1.08%
O=C(CN1CCN(Cc2ccc3c(c2)OCO3)CC1)Nc1ccc(F)cc1	-82.6%
C#CCOCCOCCOCCNc1nc(N2CCN(C(=O)[C@H](C(C)C)n3cc(CCO)nn3)CC2)nc(N2CCN(C(=O)[C@H](C(C)C)n3cc(CCO)nn3)CC2)n1	13.4%
CC(C)n1c(O)c(/C=C2\C=NN=C2c2ccccc2)sc1=S	12.1%
Cc1ccccc1-c1nc(CS(=O)(=O)CC(=O)NC2CCCC2)c(C)o1	16.9%
O=C(CCC(=O)Nc1ccc(Br)cc1)N/N=C/c1ccccc1F	10.8%
